± gives the standard error. This sample is rich in variants without activity.
B1: glmS ribozyme (parent)
chain: AUAAAAGCGCCAGAACUACAGAAAUGUAGUUGACGAGGAGGAGGUUUAUCGAAUUUUCGGCGGAUGCCUCCAAA

What was measured:
Conditions in all cases: with glucosamine-6-phosphate
glucosamine-6-phosphate [1] = variants of: B1; experiment: self-cleavage kobs at 640 uM GlcN6P; higher = faster cleavage; RNA array
Outline: (§1)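 Over ~14 h at 37 °C, tiles were imaged as glucosamine-6-phosphate (40 μM to 10 mM) in HEPES/KCl/Mg(OAc)2 buffer flowed across sequenced MiSeq chips. The chips carried barcoded ribozyme variants transcribed in situ by E. coli RNA polymerase and tracked with a hybridised Cy3 probe. After normalisation to baseline and to non-cleaving reference variants, one- or two-exponential decay fits of per-tile medians gave kobs. kcat and KM followed from weighted Michaelis–Menten fits across concentrations.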

glucosamine-6-phosphate [2] = variants of: B1; experiment: self-cleavage kobs at 160 uM GlcN6P; higher = faster cleavage; RNA array
Outline: as §1

glucosamine-6-phosphate [3] = variants of: B1; experiment: self-cleavage kobs at 2500 uM GlcN6P; higher = faster cleavage; RNA array
Outline: as §1

glucosamine-6-phosphate [4] = variants of: B1; experiment: self-cleavage kobs at 40 uM GlcN6P; higher = faster cleavage; RNA array
Outline: as §1

glucosamine-6-phosphate [5] = variants of: B1; experiment: self-cleavage kobs at 10000 uM GlcN6P; higher = faster cleavage; RNA array
Outline: as §1

G7C G60A
self-cleavage kobs at 640 uM GlcN6P (glucosamine-6-phosphate [1]): < 1e-05 s⁻¹
self-cleavage kobs at 160 uM GlcN6P (glucosamine-6-phosphate [2]): < 1e-05 s⁻¹
self-cleavage kobs at 2500 uM GlcN6P (glucosamine-6-phosphate [3]): < 1e-05 s⁻¹

U47C A53U
self-cleavage kobs at 40 uM GlcN6P (glucosamine-6-phosphate [4]): 4.38e-05 ± 9.7e-06 s⁻¹

U56C G60C
self-cleavage kobs at 40 uM GlcN6P (glucosamine-6-phosphate [4]): < 1e-05 s⁻¹
self-cleavage kobs at 640 uM GlcN6P (glucosamine-6-phosphate [1]): < 1e-05 s⁻¹
self-cleavage kobs at 160 uM GlcN6P (glucosamine-6-phosphate [2]): < 1e-05 s⁻¹
self-cleavage kobs at 2500 uM GlcN6P (glucosamine-6-phosphate [3]): < 1e-05 s⁻¹

A6U G37C G40A
self-cleavage kobs at 640 uM GlcN6P (glucosamine-6-phosphate [1]): < 1e-05 s⁻¹
self-cleavage kobs at 2500 uM GlcN6P (glucosamine-6-phosphate [3]): < 1e-05 s⁻¹

G7U C16U A36G G51U C58G
self-cleavage kobs at 640 uM GlcN6P (glucosamine-6-phosphate [1]): < 1e-05 s⁻¹
self-cleavage kobs at 160 uM GlcN6P (glucosamine-6-phosphate [2]): < 1e-05 s⁻¹

G43A U49A
self-cleavage kobs at 40 uM GlcN6P (glucosamine-6-phosphate [4]): < 1e-05 s⁻¹
self-cleavage kobs at 640 uM GlcN6P (glucosamine-6-phosphate [1]): < 1e-05 s⁻¹
self-cleavage kobs at 160 uM GlcN6P (glucosamine-6-phosphate [2]): < 1e-05 s⁻¹
self-cleavage kobs at 2500 uM GlcN6P (glucosamine-6-phosphate [3]): < 1e-05 s⁻¹
self-cleavage kobs at 10000 uM GlcN6P (glucosamine-6-phosphate [5]): < 1e-05 s⁻¹

A6G A48G C58U
self-cleavage kobs at 640 uM GlcN6P (glucosamine-6-phosphate [1]): < 1e-05 s⁻¹

U45G A48G C71U
self-cleavage kobs at 40 uM GlcN6P (glucosamine-6-phosphate [4]): < 1e-05 s⁻¹
self-cleavage kobs at 160 uM GlcN6P (glucosamine-6-phosphate [2]): < 1e-05 s⁻¹

A42G A64C
self-cleavage kobs at 40 uM GlcN6P (glucosamine-6-phosphate [4]): < 1e-05 s⁻¹
self-cleavage kobs at 160 uM GlcN6P (glucosamine-6-phosphate [2]): < 1e-05 s⁻¹

A6G A14C A33C
self-cleavage kobs at 640 uM GlcN6P (glucosamine-6-phosphate [1]): < 1e-05 s⁻¹
self-cleavage kobs at 2500 uM GlcN6P (glucosamine-6-phosphate [3]): < 1e-05 s⁻¹

U2C G43U C50U G51A
self-cleavage kobs at 640 uM GlcN6P (glucosamine-6-phosphate [1]): < 1e-05 s⁻¹
self-cleavage kobs at 2500 uM GlcN6P (glucosamine-6-phosphate [3]): < 1e-05 s⁻¹

A6G C16U U30C A42C C68U
self-cleavage kobs at 640 uM GlcN6P (glucosamine-6-phosphate [1]): < 1e-05 s⁻¹

G60U C61A
self-cleavage kobs at 40 uM GlcN6P (glucosamine-6-phosphate [4]): < 1e-05 s⁻¹
self-cleavage kobs at 160 uM GlcN6P (glucosamine-6-phosphate [2]): < 1e-05 s⁻¹
self-cleavage kobs at 2500 uM GlcN6P (glucosamine-6-phosphate [3]): < 1e-05 s⁻¹
self-cleavage kobs at 10000 uM GlcN6P (glucosamine-6-phosphate [5]): < 1e-05 s⁻¹

G9A A48C G62U
self-cleavage kobs at 640 uM GlcN6P (glucosamine-6-phosphate [1]): < 1e-05 s⁻¹
self-cleavage kobs at 2500 uM GlcN6P (glucosamine-6-phosphate [3]): < 1e-05 s⁻¹

U45A U65C
self-cleavage kobs at 40 uM GlcN6P (glucosamine-6-phosphate [4]): 9.95e-05 ± 1.1e-05 s⁻¹
self-cleavage kobs at 640 uM GlcN6P (glucosamine-6-phosphate [1]): 0.000994 ± 0.00014 s⁻¹
self-cleavage kobs at 160 uM GlcN6P (glucosamine-6-phosphate [2]): 0.000318 ± 6.3e-05 s⁻¹
self-cleavage kobs at 2500 uM GlcN6P (glucosamine-6-phosphate [3]): 0.00204 ± 0.00054 s⁻¹
self-cleavage kobs at 10000 uM GlcN6P (glucosamine-6-phosphate [5]): 0.00374 ± 0.00047 s⁻¹

U45A U55C
self-cleavage kobs at 40 uM GlcN6P (glucosamine-6-phosphate [4]): 0.000654 ± 0.00021 s⁻¹
self-cleavage kobs at 640 uM GlcN6P (glucosamine-6-phosphate [1]): 0.00526 ± 0.0015 s⁻¹
self-cleavage kobs at 2500 uM GlcN6P (glucosamine-6-phosphate [3]): 0.00714 ± 0.0029 s⁻¹
self-cleavage kobs at 10000 uM GlcN6P (glucosamine-6-phosphate [5]): 0.024 ± 0.0085 s⁻¹

G7C G9U A36U
self-cleavage kobs at 640 uM GlcN6P (glucosamine-6-phosphate [1]): < 1e-05 s⁻¹
self-cleavage kobs at 160 uM GlcN6P (glucosamine-6-phosphate [2]): < 1e-05 s⁻¹
self-cleavage kobs at 2500 uM GlcN6P (glucosamine-6-phosphate [3]): < 1e-05 s⁻¹

U47A C58A C71G
self-cleavage kobs at 40 uM GlcN6P (glucosamine-6-phosphate [4]): < 1e-05 s⁻¹

G43A U57A
self-cleavage kobs at 40 uM GlcN6P (glucosamine-6-phosphate [4]): < 1e-05 s⁻¹

C8A A12U U56G G66A
self-cleavage kobs at 640 uM GlcN6P (glucosamine-6-phosphate [1]): < 1e-05 s⁻¹

G7U C61A
self-cleavage kobs at 640 uM GlcN6P (glucosamine-6-phosphate [1]): < 1e-05 s⁻¹
self-cleavage kobs at 160 uM GlcN6P (glucosamine-6-phosphate [2]): < 1e-05 s⁻¹
self-cleavage kobs at 2500 uM GlcN6P (glucosamine-6-phosphate [3]): < 1e-05 s⁻¹

U56A C70U C71U
self-cleavage kobs at 40 uM GlcN6P (glucosamine-6-phosphate [4]): 5.46e-05 ± 1.5e-05 s⁻¹
self-cleavage kobs at 640 uM GlcN6P (glucosamine-6-phosphate [1]): 8.84e-05 ± 1.7e-05 s⁻¹
self-cleavage kobs at 2500 uM GlcN6P (glucosamine-6-phosphate [3]): 0.000232 ± 5.2e-05 s⁻¹
self-cleavage kobs at 10000 uM GlcN6P (glucosamine-6-phosphate [5]): 8.85e-05 ± 1.7e-05 s⁻¹

G7U G43A G51U
self-cleavage kobs at 640 uM GlcN6P (glucosamine-6-phosphate [1]): < 1e-05 s⁻¹
self-cleavage kobs at 10000 uM GlcN6P (glucosamine-6-phosphate [5]): < 1e-05 s⁻¹

C50U U57C
self-cleavage kobs at 40 uM GlcN6P (glucosamine-6-phosphate [4]): < 1e-05 s⁻¹
self-cleavage kobs at 160 uM GlcN6P (glucosamine-6-phosphate [2]): < 1e-05 s⁻¹

C8U U31G G35U G44A C70U
self-cleavage kobs at 640 uM GlcN6P (glucosamine-6-phosphate [1]): < 1e-05 s⁻¹
self-cleavage kobs at 2500 uM GlcN6P (glucosamine-6-phosphate [3]): < 1e-05 s⁻¹

Source: the supplement of paper PMC7125110
